Test results reported in publication PMC4336329 (PLoS ONE, 2015).
The campaign covered roughly 310,000 compounds. About 2,200 (0.71%) showed an effect of 50% or more. Effects have a minus sign here. The list shows a part of the results.

molecular target: human ether-à-go-go-related gene (hERG) potassium channel (human, UniProt Q12809); experiment: primary screen, population patch clamp on CHO cells stably expressing hERG
Sequence (Q12809 whole entry, looked up): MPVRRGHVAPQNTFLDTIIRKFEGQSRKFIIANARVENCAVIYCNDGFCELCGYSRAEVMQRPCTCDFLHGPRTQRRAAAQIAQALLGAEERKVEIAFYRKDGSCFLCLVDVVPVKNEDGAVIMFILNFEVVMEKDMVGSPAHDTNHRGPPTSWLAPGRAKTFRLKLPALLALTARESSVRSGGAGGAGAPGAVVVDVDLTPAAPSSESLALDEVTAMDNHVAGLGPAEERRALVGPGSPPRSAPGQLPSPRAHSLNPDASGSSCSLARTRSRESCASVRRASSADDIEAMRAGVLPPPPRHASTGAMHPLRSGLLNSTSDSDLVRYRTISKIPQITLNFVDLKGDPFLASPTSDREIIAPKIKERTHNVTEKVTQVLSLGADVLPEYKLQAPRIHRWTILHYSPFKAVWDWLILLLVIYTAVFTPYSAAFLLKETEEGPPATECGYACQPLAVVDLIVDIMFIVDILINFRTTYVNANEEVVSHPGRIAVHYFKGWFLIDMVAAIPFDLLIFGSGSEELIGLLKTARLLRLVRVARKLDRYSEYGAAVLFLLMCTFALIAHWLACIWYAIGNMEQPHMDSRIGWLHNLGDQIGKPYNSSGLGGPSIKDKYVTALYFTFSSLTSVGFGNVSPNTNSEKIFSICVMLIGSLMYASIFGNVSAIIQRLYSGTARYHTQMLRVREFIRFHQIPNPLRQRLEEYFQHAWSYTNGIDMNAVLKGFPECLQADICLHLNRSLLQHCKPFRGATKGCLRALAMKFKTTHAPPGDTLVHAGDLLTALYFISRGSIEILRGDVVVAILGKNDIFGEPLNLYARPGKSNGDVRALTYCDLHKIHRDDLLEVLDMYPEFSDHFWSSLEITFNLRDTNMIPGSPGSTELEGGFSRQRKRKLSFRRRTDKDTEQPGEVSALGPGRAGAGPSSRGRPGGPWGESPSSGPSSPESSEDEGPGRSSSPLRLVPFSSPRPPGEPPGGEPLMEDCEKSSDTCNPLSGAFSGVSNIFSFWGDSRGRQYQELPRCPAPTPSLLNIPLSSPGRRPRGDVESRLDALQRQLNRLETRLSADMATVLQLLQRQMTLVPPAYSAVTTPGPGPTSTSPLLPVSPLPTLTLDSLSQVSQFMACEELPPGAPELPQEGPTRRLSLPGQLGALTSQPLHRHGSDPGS

Compound	hERG current change (%, negative = inhibition) at 1uM
COc1ccc(OCCOC(=O)CNC(=O)c2cccc(C)c2)cc1	4.51%
O=C(O)c1cccc(-c2ccc(/C=N/n3cnnc3)o2)c1	11.4%
O=S(=O)(NCc1ccc2c(c1)OCO2)c1ccc2oc3ccccc3c2c1	-7.24%
O=C(Nc1ccc2c(c1)OCCO2)c1ccc(Br)cc1	0.007%
COc1ccc(NC(=O)C2CCN(c3cnccn3)CC2)cc1OC	11.9%
COc1ccc2c(c1)[C@H]1[C@H](CO2)[C@H](c2ccccc2)[C@]2(C)C(=O)Nc3ccccc3C(=O)N12	-6.64%
Cc1cc(NC(=O)CCN2CCN(CCO)CC2)ccc1Br.Cl	14.1%
CC(=O)Nc1ccc(C(=O)Nc2ccc3c(c2)OCCO3)cc1	5.37%
CCN1CCN(C(=O)c2cc3cc(F)ccc3[nH]2)CC1	-40.5%
CCCN(CCC(=O)Nc1cc(OC)cc(OC)c1)CC1CC1.Cl	3.78%
O=C(Nc1nccs1)c1ccc([N+](=O)[O-])cc1Cl	11.3%
O=C(Cn1nc([N+](=O)[O-])nc1Br)NC1CCCCC1	6.96%
CC1CCC2(CC1)NC(=O)N(CC(=O)Nc1cccnc1Cl)C2=O (stereo not drawn)	11.4%
CCOP(=O)(OCC)C(NC(=O)c1ccc(C)cc1)=C(Cl)Cl	9.41%
Cn1c(=O)n(C)c2cc(NS(=O)(=O)c3ccc(Cl)s3)ccc21	17.8%
Cc1ccc(S(=O)(=O)CCC(=O)OCn2nnc3ccccc3c2=O)cc1	8.34%
CCCCn1c(N)c(N(CC)C(=O)c2cccc(OC)c2)c(=O)[nH]c1=O	6.92%
Cc1ccc(OCC(=O)OCC(=O)c2ccccc2)cc1C	6.93%
Cc1cc(OC(=O)c2ccc(S(=O)(=O)N(C)C)cc2)c([N+](=O)[O-])c(=O)[nH]1	5.99%

Compound	hERG current change (%, negative = inhibition) at 1uM
CC1CCN(S(=O)(=O)c2nnc(NC(=O)c3cccc(Cl)c3)s2)CC1	5.4%
CCC(C)(C)C1CCC2(CC1)NC(=O)N(CC(=O)NCCc1ccc(OC)c(OC)c1)C2=O (stereo not drawn)	12.2%
O=C(Nc1nccs1)c1ccc(Cl)cc1[N+](=O)[O-]	2.34%
CC(=O)N(NC(=O)c1ccccc1Cl)C1CC(=O)N(c2ccc(C)cc2)C1=O (stereo not drawn)	16.6%
COC(=O)c1ccc(N2CCOCC2)c(NC(=O)c2ccco2)c1	7.23%
O=C(Nc1cc(Cl)cc(Cl)c1)Nc1cnccn1	10.4%
N#Cc1c(N)nc2c(c1N)CC(CCl)O2 (stereo not drawn)	15.2%
COc1cccc(CN(Cc2ccco2)S(=O)(=O)c2ccc(S(=O)(=O)NCc3ccccc3)cc2)c1OC	13%
N#Cc1ccccc1CSc1ccc(-c2nc3ccccc3[nH]2)cn1	16.2%
N=c1c(C(=O)NC2CCCCC2)cc2c(=O)n3ccccc3nc2n1CCc1ccccc1	-88.1%
O=C(CNS(=O)(=O)c1ccc(Br)s1)NCC1COc2ccccc2O1 (stereo not drawn)	11.2%
COc1ccc(S(=O)(=O)N2CCN(Cc3cc(=O)n4ccccc4n3)CC2)cc1	3.94%
CCCCCOCC1CC(C/C(C)=N/Nc2nc(-c3ccccc3)cs2)C(=O)O1 (stereo not drawn)	0.71%
COc1ccc(S(=O)(=O)N(CC(=O)N2CCOCC2)Cc2ccccc2)cc1C	-0.723%
CCN(CC)S(=O)(=O)c1cccc(NC(=O)COC(=O)CNC(=O)c2cccc(F)c2)c1	-11.1%
N/C(Cc1ccc([N+](=O)[O-])cc1)=N\OC(=O)C1CCCCC1	1.83%
CC1CCCN(C(C(=O)Nc2ccc3c(c2)OCO3)c2ccccc2)C1 (stereo not drawn)	12.1%
O=C(NC1CCCC1)C1c2ccccc2C(=O)N1C1CCCCC1 (stereo not drawn)	-1.85%
CN(C)CCN1C(=O)C(O)=C(C(=O)c2ccco2)C1c1ccccc1F (stereo not drawn)	10.4%

Compound	hERG current change (%, negative = inhibition) at 1uM
Cc1cc(NC(=O)c2cc([N+](=O)[O-])cc([N+](=O)[O-])c2)n(-c2ccccc2)n1	13.3%
CCOC(=O)CSC(C)C(=O)Nc1nnc(C(C)C)s1 (stereo not drawn)	3.06%
COc1ccc(C2=NC(CO)(CO)CO2)cc1	16.1%
COc1cccc(NC(=O)CC(C)=O)c1	9.03%
O=C(Cc1ccc(-c2ccccc2)cc1)NC(c1ccccc1)c1ccccc1	13%
Cc1csc(NC(=O)c2c(O)c3c(n(CC(C)C)c2=O)CCCC3)n1	-0.48%
Cc1ccccc1OCCCC(=O)NC1CCCCC1	15.7%
CCN(CC)S(=O)(=O)c1ccc(N=Nc2cc(C)cc(Br)c2O)cc1	12.2%
c1ccc(OCc2ccc(CCCN3CCOCC3)cc2)cc1	-5.57%
COC(=O)C1=C(c2cc3ccccc3s2)C[C@@H]2CC[C@H]1N2C(=O)NCCNC(C)=O	6.85%
COc1ccccc1NS(=O)(=O)c1cccc(N2CC(O)=C(c3ccccc3)C2=N)c1	-0.787%
O=c1c2ccccc2ncn1CCCOc1ccccc1[N+](=O)[O-]	-18.8%
Clc1ccc(N2CCCCCC2)nn1	6.71%
NC(=O)N/N=C/c1ccccc1OCc1cccc2ccccc12	6.35%
C=C1c2ccccc2NC(=O)N1c1ccc(C)cc1	10.9%
C=CCc1cc(C=C2C(=O)N(C)C(=O)N(C)C2=O)cc(OCC)c1OCc1ccccc1	14.5%
Clc1ccccc1-c1nc(/C=N/N2CCOCC2)c2ccccn12	16.9%
CCOC(=O)CSc1nc(C)cc(C)c1C(N)=O	9.75%
Cc1ccc(NC(=O)c2ccccc2F)nc1	-2.15%
